Values marked as one replicate rest on one cluster of the flow cell; about a third of the high ones do not repeat.
What follows are sequences tested on ATP (assay: switch fluorescence ratio, 500 uM ATP over buffer (Cy3 cluster intensity, sum of 5 cycles each) (fold (ratio)); higher = stronger signal-on switching upon ATP binding; sequences stand for … in TCGTCGGCAGCGTCAGATGTGTATAAGAGACAGTTTTTTTTTTTTTTTTTTTTTTTTT…TC). Conditions: aptamer strand: ATP DNA aptamer (quencher-CACCTGGGGGAGTATTGCGGAGGAAGG + anchor), 100 nM annealed; ATP concentration: 500 uM; one replicate.
In short: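 Clusters carrying Cy3-labelled switching strands on a modified Illumina MiSeq flow-cell were annealed to 100 nM quencher-labelled ATP aptamer and imaged in selection buffer. They were imaged again after 15 min with 500 uM ATP at 22 °C, over five buffer/ATP cycles with NaOH stripping and re-annealing in between. For each cluster, the fluorescence ratio is the summed Cy3 intensity of the target cycles divided by that of the buffer cycles, averaged per switch-domain sequence. Clusters outside 100-1000 RFU were left out.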
For TCACGCACCT, the switch fluorescence ratio was 1.85.
TCACGGAGGC showed a switch fluorescence ratio of 0.966.
Work on TCACGTCCAC yielded a switch fluorescence ratio of 1.4.
For TCACGTCGAA, the switch fluorescence ratio was 1.07.
In the case of TCACGTTCAT, the switch fluorescence ratio is reported as 1.05.
In the case of TCACGTTGAT, the switch fluorescence ratio is reported as 1.01.
Work on TCACTACATT yielded a switch fluorescence ratio of 1.08.
With TCACTATCCA the switch fluorescence ratio was 0.987.
TCACTATTCT gave a switch fluorescence ratio of 0.947.
With TCACTCGACT the switch fluorescence ratio was 1.08.
Sequence TCACTCGGGG has a switch fluorescence ratio of 0.961.
Sequence TCACTGGG has a switch fluorescence ratio of 1.
Sequence TCACTGTGCC has a switch fluorescence ratio of 1.02.
Work on TCACTTCGTA yielded a switch fluorescence ratio of 1.06.
In the case of TCACTTGCGG, the switch fluorescence ratio is reported as 0.947.
Sequence TCAGAGGCAC has a switch fluorescence ratio of 1.1.
TCAGATGATT showed a switch fluorescence ratio of 1.03.
In the case of TCAGCAGGGA, the switch fluorescence ratio is reported as 1.06.
TCAGCAGTCC showed a switch fluorescence ratio of 1.65.
TCAGCTAATT gave a switch fluorescence ratio of 1.03.
In the case of TCAGCTAG, the switch fluorescence ratio is reported as 1.22.
TCAGCTTAGC showed a switch fluorescence ratio of 1.
With TCAGGAAGAA the switch fluorescence ratio was 0.962.
TCAGGACACA showed a switch fluorescence ratio of 1.03.
TCAGGAGCGG showed a switch fluorescence ratio of 0.869.
TCAGGAGTTG gave a switch fluorescence ratio of 0.997.
Work on TCAGGCATAT yielded a switch fluorescence ratio of 1.01.
TCAGGCGTAG was tested, and the switch fluorescence ratio was 0.958.
Sequence TCAGGCTTGC has a switch fluorescence ratio of 1.03.
For TCAGGCTTGG, the switch fluorescence ratio was 1.01.
With TCAGGGACAT the switch fluorescence ratio was 0.993.
Work on TCAGGGAGCG yielded a switch fluorescence ratio of 0.991.
TCAGGTATGA gave a switch fluorescence ratio of 0.974.
TCAGGTCCAG gave a switch fluorescence ratio of 1.02.
In the case of TCAGTACCCC, the switch fluorescence ratio is reported as 1.07.
Work on TCAGTAGTTT yielded a switch fluorescence ratio of 0.985.
In the case of TCAGTATTGG, the switch fluorescence ratio is reported as 1.04.
In the case of TCAGTCACAC, the switch fluorescence ratio is reported as 1.06.
For TCAGTGAAGA, the switch fluorescence ratio was 1.01.
TCAGTGTTAC gave a switch fluorescence ratio of 0.984.
In the case of TCAGTTACAA, the switch fluorescence ratio is reported as 1.
For TCAGTTGAA, the switch fluorescence ratio was 1.02.
In the case of TCAGTTGCGC, the switch fluorescence ratio is reported as 1.04.
TCAGTTTCCC was tested, and the switch fluorescence ratio was 1.01.
In the case of TCATACACCT, the switch fluorescence ratio is reported as 1.22.
TCATACGTAG gave a switch fluorescence ratio of 1.02.
TCATAGGTC showed a switch fluorescence ratio of 0.991.
For TCATCAATTA, the switch fluorescence ratio was 0.982.
TCATCATTCA showed a switch fluorescence ratio of 1.02.
TCATCCGTTG showed a switch fluorescence ratio of 1.81.
TCATCGATTG was tested, and the switch fluorescence ratio was 0.996.
With TCATCGCGGA the switch fluorescence ratio was 1.1.
For TCATCGGGCA, the switch fluorescence ratio was 1.05.
TCATCTAATC gave a switch fluorescence ratio of 1.04.
Sequence TCATCTGGAA has a switch fluorescence ratio of 2.28.
Sequence TCATGAAAGT has a switch fluorescence ratio of 0.97.
TCATGACTAT gave a switch fluorescence ratio of 0.978.
For TCATGCAAGG, the switch fluorescence ratio was 1.03.
TCATGCAGGA was tested, and the switch fluorescence ratio was 1.03.
In the case of TCATGTACAC, the switch fluorescence ratio is reported as 1.09.
Work on TCATGTGTTA yielded a switch fluorescence ratio of 0.988.
Sequence TCATTCCAGG has a switch fluorescence ratio of 1.15.
For TCATTCCTAA, the switch fluorescence ratio was 1.01.
Work on TCATTCGTAT yielded a switch fluorescence ratio of 1.01.
TCATTCTAAA showed a switch fluorescence ratio of 0.983.
TCATTGAGGT gave a switch fluorescence ratio of 0.973.
TCATTGCGAA showed a switch fluorescence ratio of 1.04.
For TCATTTATCC, the switch fluorescence ratio was 1.04.
TCATTTCGGT showed a switch fluorescence ratio of 0.982.
TCCAAAAATG gave a switch fluorescence ratio of 1.02.
For TCCAAACGTG, the switch fluorescence ratio was 0.998.
For TCCAAATAAT, the switch fluorescence ratio was 1.03.
TCCAACCTTA was tested, and the switch fluorescence ratio was 0.967.
Work on TCCAACTGGT yielded a switch fluorescence ratio of 0.998.
TCCAAGAATT showed a switch fluorescence ratio of 0.94.
Sequence TCCAATAAAC has a switch fluorescence ratio of 1.19.
With TCCAATTGGC the switch fluorescence ratio was 1.07.
TCCAATTTGG gave a switch fluorescence ratio of 1.02.
In the case of TCCACAAACA, the switch fluorescence ratio is reported as 1.16.
TCCACCAGCA showed a switch fluorescence ratio of 2.59.
TCCACGGTT was tested, and the switch fluorescence ratio was 0.992.
With TCCACTTTCG the switch fluorescence ratio was 1.01.
TCCAGACTTT showed a switch fluorescence ratio of 1.05.
In the case of TCCAGCATTA, the switch fluorescence ratio is reported as 1.74.
TCCAGCCACT showed a switch fluorescence ratio of 1.04.

From the supplement of paper PMC10126150
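Note: ATP exposure 15 min at 22 °C before imaging.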
